Here are results for four molecules from patent US20240400644A1 (ACROIMMUNE GUANGZHOU BIOTECH, published 2024).

Read-outs that look alike come from different tables or passages of the source.

The target of test [1] is T1, HMGB1-His tag protein (human, UniProt P09429 1-215, limits assumed).
T1 construct: Bought, HEK293 cell derived; also called human HMGB1; HMGB1-His protein; not shown: His tag
T1 sequence (looked up): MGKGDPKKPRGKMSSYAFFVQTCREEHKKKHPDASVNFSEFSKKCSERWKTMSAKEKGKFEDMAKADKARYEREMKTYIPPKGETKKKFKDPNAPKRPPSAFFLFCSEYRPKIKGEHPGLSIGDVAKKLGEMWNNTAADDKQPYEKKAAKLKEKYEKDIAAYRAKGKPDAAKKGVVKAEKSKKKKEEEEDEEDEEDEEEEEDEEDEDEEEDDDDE
Put plainly: ELISA: HMGB1-His coated at 0.1 µg/mL, Fc-fusion protein titrated 2-fold in buffer with 1 mM MgCl2 and 1 mM CaCl2, HRP goat anti-human IgG-Fc, TMB. The procedure: Briefly, a 96-well plate was coated with recombinant GST-Siglec-10 fusion protein (at concentration of 200 ng/ml). After washing and blocking, the plate was incubated with a two-fold serial dilution of different versions of AI-071-Fc protein or AI-071 control sample (all starting at 1.5 mg/mL), the bound protein was then detected by adding HRP-labeled goat anti-human (1:1000, Invitrogen, A18829), followed by the addition of tetramethylbenzidin (TMB) substrates. […] Briefly, a 96-well plate was coated with 0.1 μg/mL HMGB1-His tag protein (AcroBiosystems, HM1-H5220, HEK293 cell derived). The plate was then incubated with 2-fold serial dilutions of different version of AI-07-Fc protein (all starting at 1.5 mg/mL, in PBST-1% BSA solution containing 1 mM MgCl2 and 1 mM CaCl2). The bound protein was then detected by adding HRP-labeled goat anti-human IgG-Fc antibody (1:1000, Invitrogen, A18829), followed by the addition of tetramethylbenzidin (TMB) substrates.
FIG. 20A-20B show the binding of 3 different other versions of AI-071-Fc protein (AI-071-X, AI-71-Y and AI-071-Z), to human Siglec-10 or HMGB1 in ELISA. Each of these three AI-071-Fc protein variants (AI-071-X, AI-71-Y and AI-071-Z) containing 5 copies of a 12 AA-long peptide derived from different portions of CD24 other than 071core peptide. Same as in FIG. 19, AI-071 fusion protein was included in the assay and served as a control sample for comparison. […] The ELISA method and sample preparation are same as that in FIG. 19A. […] The ELISA method and sample preparation are same as that in FIG. 19B.
(In general: In an ELISA, binding on a coated surface is turned into a signal by an enzyme label.)

The target in test [2] is T1, HMGB1-His tag protein. The test is described as above. The procedure:
FIG. 19A-19B show the binding of 2 different versions of AI-071-Fc protein containing either 1 copy of 071core (AI-071-1copy) or 2 copies of 071core (AI-071-2copies) to human Siglec-10 or HMGB1 in ELISA. A control sample of AI-071 fusion protein was included in the assay and served for comparison. […] Briefly, a 96-well plate was coated with recombinant GST-Siglec-10 fusion protein (at concentration of 200 ng/ml). After washing and blocking, the plate was incubated with a two-fold serial dilution of different versions of AI-071-Fc protein or AI-071 control sample (all starting at 1.5 mg/mL), the bound protein was then detected by adding HRP-labeled goat anti-human (1:1000, Invitrogen, A18829), followed by the addition of tetramethylbenzidin (TMB) substrates. […] Briefly, a 96-well plate was coated with 0.1 μg/mL HMGB1-His tag protein (AcroBiosystems, HM1-H5220, HEK293 cell derived). The plate was then incubated with 2-fold serial dilutions of different version of AI-07-Fc protein (all starting at 1.5 mg/mL, in PBST-1% BSA solution containing 1 mM MgCl2 and 1 mM CaCl2). The bound protein was then detected by adding HRP-labeled goat anti-human IgG-Fc antibody (1:1000, Invitrogen, A18829), followed by the addition of tetramethylbenzidin (TMB) substrates.
The source holds these as a separate data set.

B1: AI-071-Z (Fc fusion)
chain: GLAPNPTNATTKGLAPNPTNATTKGLAPNPTNATTKGLAPNPTNATTKGLAPNPTNATTK[human IgG1 Fc skipped]
notes: Signal peptide left out
As for B1, the binding result in test [1] is listed as “binds”.

B2: AI-071-Y (Fc fusion)
chain: APNPTNATTKAAAPNPTNATTKAAAPNPTNATTKAAAPNPTNATTKAAAPNPTNATTKAA[human IgG1 Fc skipped]
modifications: glycosylated as produced in CHO cells; sites not mapped
notes: Signal peptide left out; also called AI-71-Y
Take B2: in test [1], the binding result is recorded as “binds”. As to STSNSGLAPNPTSTSNSGLAPNPT[human IgG1 Fc skipped] (Fc fusion) [AI-071-2copies], the binding result in test [2] was “binds”.

B3: AI-071-X (Fc fusion)
chain: SETTTGTSSNSSSETTTGTSSNSSSETTTGTSSNSSSETTTGTSSNSSSETTTGTSSNSS[human IgG1 Fc skipped]
modifications: glycosylated as produced in CHO cells; sites not mapped
With B3, the binding result in test [1] was “binds”.
